Laboratory results: article PMC4336329 (PLoS ONE, 2015)
Among all 310,000 compounds or so, about 14,000 (4.5%) showed an effect of 50% or more. Effects have a minus sign here. The list shows a part of the results.

Biological target: human ether-à-go-go-related gene (hERG) potassium channel (human, UniProt Q12809)
Assay: primary screen, population patch clamp on CHO cells stably expressing hERG
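Note: peak tail current of the secondary pulse compared with the same well before compound.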

human ether-à-go-go-related gene (hERG) potassium channel, sequence (Q12809 whole entry, looked up): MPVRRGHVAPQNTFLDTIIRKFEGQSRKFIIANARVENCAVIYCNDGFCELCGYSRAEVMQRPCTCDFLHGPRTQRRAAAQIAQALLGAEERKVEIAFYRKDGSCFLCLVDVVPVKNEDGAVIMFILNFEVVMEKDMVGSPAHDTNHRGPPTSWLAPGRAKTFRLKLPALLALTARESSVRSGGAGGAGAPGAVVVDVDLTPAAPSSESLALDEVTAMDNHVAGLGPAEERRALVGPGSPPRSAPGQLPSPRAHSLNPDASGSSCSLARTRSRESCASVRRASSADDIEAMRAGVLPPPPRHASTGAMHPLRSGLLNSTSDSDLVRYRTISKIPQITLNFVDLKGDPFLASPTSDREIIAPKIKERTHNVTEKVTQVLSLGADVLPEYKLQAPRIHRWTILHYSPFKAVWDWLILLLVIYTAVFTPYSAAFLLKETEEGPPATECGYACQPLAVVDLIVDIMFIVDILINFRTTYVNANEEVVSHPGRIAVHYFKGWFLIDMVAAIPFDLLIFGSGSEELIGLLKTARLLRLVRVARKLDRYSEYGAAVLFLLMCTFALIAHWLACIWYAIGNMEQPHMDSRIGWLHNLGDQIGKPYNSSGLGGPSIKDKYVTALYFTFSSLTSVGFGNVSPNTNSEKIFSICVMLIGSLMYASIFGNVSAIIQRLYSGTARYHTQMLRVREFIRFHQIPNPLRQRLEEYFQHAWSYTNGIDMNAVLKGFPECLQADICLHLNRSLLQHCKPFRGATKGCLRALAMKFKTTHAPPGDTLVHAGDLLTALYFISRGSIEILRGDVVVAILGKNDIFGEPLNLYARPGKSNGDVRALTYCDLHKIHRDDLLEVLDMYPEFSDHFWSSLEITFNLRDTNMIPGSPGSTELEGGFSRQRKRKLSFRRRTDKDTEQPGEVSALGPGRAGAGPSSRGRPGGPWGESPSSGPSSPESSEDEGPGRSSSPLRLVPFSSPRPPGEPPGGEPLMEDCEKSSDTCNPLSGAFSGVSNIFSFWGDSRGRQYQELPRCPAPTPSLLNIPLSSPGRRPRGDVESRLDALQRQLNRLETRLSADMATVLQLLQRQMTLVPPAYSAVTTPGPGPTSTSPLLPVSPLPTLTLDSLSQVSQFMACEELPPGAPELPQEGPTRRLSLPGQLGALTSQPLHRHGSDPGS

SMILES | hERG current change (%, negative = inhibition) at 10uM [%]
CCc1ccc(C(=O)COC(=O)CNC(=O)CNS(=O)(=O)c2ccccc2)cc1 | -16.5
CC(=O)NCc1ccc(C(=O)O)cc1 | 6.67
O=C(O)c1ccc2c(=O)n(-c3ccccc3)c(=S)[nH]c2c1 | 3.07
CCN(CC)C(=O)CSc1nc2cc3c(cc2c(=O)n1Cc1ccc2c(c1)OCO2)OCO3 | 9.13
COc1ccc(Nc2nc(-c3cccc([N+](=O)[O-])c3)nc3ccccc23)c(OC)c1 | 15
O=c1oc2ccccc2n1CCn1c2ccccc2c2nc3ccccc3nc21 | 10.7
COc1ccc(C)cc1NC(=O)CN(C)S(=O)(=O)c1cccs1 | -10.3
CC(Sc1nn(-c2ccc(F)cc2)c(=S)s1)C(=O)c1c(N)n(C)c(=O)n(C)c1=O (stereo not shown) | 6.76
Cc1[nH]n(-c2ccccc2)c(=O)c1C=Nc1ccc(S(=O)(=O)N(C)C)cc1 | 9.37
Cc1ccc2cc(CN(Cc3cccs3)C(=O)c3ccco3)c3nnnn3c2c1C | 0.583
CC(C(=O)OCC(=O)c1ccc([N+](=O)[O-])cc1)N1C(=O)C2C3CCC(C3)C2C1=O (stereo not shown) | -54
N#Cc1ccc2ccn(CC(=O)N3CCCc4ccccc43)c2c1 | -7.51
COc1ccc(NC(=O)CN(C)C(=O)c2cn(-c3ccccc3)nc2-c2cccs2)cc1 | -5.02
COc1ccc(Cc2noc(-c3ccc([N+](=O)[O-])cc3)n2)cc1OC | 3.29
Cn1c(CO)nc2cc(N)ccc21 | 1.22
CCCOC(=O)C1=C(C)NC2=C(C(=O)C(C(=O)OC)C(C)C2)C1c1ccc(N(C)C)cc1 (stereo not shown) | -17.4
CCC(=O)OC1(C)C(=O)C=C2C=C(CCCC(=O)OC)OC=C2C1=O (stereo not shown) | 11.5
Cc1ccc2nc(-c3ccc(-c4cccc(Cl)c4)cc3)c(NCc3ccccc3)n2c1.O=C(O)C(F)(F)F | -1.52
Cc1ccc(-n2ncc(C#N)c2/N=C/N2CCN(C)CC2)cc1 | -13.8
COc1cc2c(cc1OC)C(C)N(CCc1ccc(Cl)cc1)CC2.O=C(O)/C=C\C(=O)O (stereo not shown) | -70.2
COCCCC1CCN(C(=O)C2CCC(=O)N(CCc3ccccc3)C2)CC1 (stereo not shown) | -19.5
Cc1cc2c(N3CCCCC3C)ncnc2s1 (stereo not shown) | -16.3

SMILES | hERG current change (%, negative = inhibition) at 10uM [%]
CSc1ccccc1NC(=O)CN(c1cccc(C)c1)S(C)(=O)=O | 0.894
CSCCC(=O)Nc1ccc(C(C)=O)cc1 | 3.37
COc1ccccc1-c1ccc(SCc2ccc([N+](=O)[O-])cc2)nn1 | -1.95
CCOC(=O)C1(CCOc2ccccc2)CCN(Cc2ccc(O)c(OC)c2)CC1 | -75.4
COc1ccc(OC)c(/C=C/C(=O)Nc2ccc(OC)nc2)c1 | -14.7
Cc1nc(N)ncc1C(=O)Nc1ccccc1 | 14.5
O=C(COC(=O)c1ccc(C(F)(F)F)cc1)Nc1cccc(S(=O)(=O)N2CCCCC2)c1 | 10.2
Cc1ccc(NC(=O)CCS(=O)(=O)c2cccc3nonc23)cc1 | -11.5
C=C(C)[C@@H]1CC=C(CN2CCC(CCOC)(C(=O)OCC)CC2)CC1 | -64.7
NS(=O)(=O)c1cc(C(=O)OCC(=O)N2CCOCC2)ccc1Cl | 23.1
CCCNC(=O)[C@H](C)NC(=O)c1ccc(Br)cc1 | 12.6
CC1CCCC(NC(=O)CCS(=O)(=O)c2cc3c(cc2Cl)NC(=O)CO3)C1C (stereo not shown) | -49.5
COc1cccc(CNC(=O)C2CCN(S(=O)(=O)c3cccc4cccnc34)CC2)c1 | -2.43
CC1CCCCN1C(=S)NCCc1ccccc1 (stereo not shown) | -5.4
O=C(Nc1ccc(F)cc1F)C1CCN(S(=O)(=O)c2cccnc2)CC1 | -1.85
CCC(=O)NNc1ncnc2c1cnn2-c1cccc(C)c1 | 7.93
O=C1CN(O)C=C2N=c3ccccc3=C2N1c1ccc([N+](=O)[O-])cc1 | -26.6
O=C(NCc1ccc(OC(F)(F)F)cc1)C1CC(c2c(Cl)cccc2Cl)=NO1 (stereo not shown) | -13.3
C=CCn1cnc2scc(-c3ccc(OC)cc3)c2c1=O | -5.72
CCOc1ccc(C(=O)COC(=O)CC)cc1 | 4.46
CN(C)Cc1c(C(=O)N/N=C/c2ccccc2OCc2ccc(F)cc2)nnn1-c1nonc1N | 32
COc1ccccc1N1CCN(S(=O)(=O)c2cc(C(F)(F)F)cc(C(F)(F)F)c2)CC1 | 11.5

SMILES | hERG current change (%, negative = inhibition) at 10uM [%]
CC(=O)CCc1ccc2oc(C(=O)O)c(C)c2c1 | -1.43
N#C/C(=N\Nc1ccc([N+](=O)[O-])cc1)C(N)=S | 13.4
CSc1nc2sc(-c3ccccc3)cc2c(=O)n1N | 17.4
COc1ccc(-c2csc(NC(C)c3nc4cc(C(=O)NCCCO)ccc4n3Cc3ccc(C)cc3)n2)cc1 (stereo not shown) | 9.34
C(=C(c1ccccc1)c1ccccc1)c1ccccn1 | -4.2
Cc1ccc(-n2nc(C)c3c(C)c(CCC(=O)NCc4ccccc4)c(C)nc32)cc1 | 10.5
CCOC(=O)c1sc2ncn(/N=C/c3ccc(O)cc3)c(=O)c2c1C | 12.7
CCCCCOC(=O)c1c(N)n(CCOC)c2nc3ccccc3nc12 | -70.2
COc1ccc(CNC(=O)CN2CCC(C(=O)c3ccc(OC)cc3)CC2)cc1 | -58
FC(F)(F)c1ccc(CN2C[C@@H]3C(c4ccccc4)C4(c5cccnc5)CC3(C4)[C@H]2c2ccccc2)cc1 (stereo partly shown) | -23.7
Cc1ccc(-c2nnc3c4ccccc4c(C)nn23)cc1S(=O)(=O)N1CCN(CCO)CC1 | -32.9
O=C(COc1ccc(S(=O)(=O)NC2CCCCC2)cc1Cl)NCc1cccnc1 | -5.45
CCC(=O)c1ccc(OC(=O)c2ccc(Br)o2)cc1 | 4.68
CN(C(=O)c1ccc(NC(=O)C2CC=CCC2C(=O)O)cc1)c1ccccc1 (stereo not shown) | 16.7
CCc1ccc(NC(=O)CNC(=O)c2cn(-c3ccccc3OC)c(=O)c3ccccc23)cc1 | -10.6
O=C(c1cccc([N+](=O)[O-])c1)N1CCN(c2ccc(N3CCOCC3)nn2)CC1 | -24.2
Cc1ccc(C(=O)C(C)OC(=O)c2cc3cc([N+](=O)[O-])ccc3oc2=O)cc1 (stereo not shown) | -41.2
O=c1[nH]c2ccccc2c2nc(-c3cccc(S(=O)(=O)N4CCCC4)c3)nn12 | 21.2
Cc1ccc(N(CC(=O)N2CCCCC2)S(=O)(=O)c2ccc(C)cc2)cc1 | -20.9
CCOC(=O)C1=C(C)C(c2ccc(OC)cc2)NC(=O)N1 (stereo not shown) | 9.3
S=C(c1ccc(N2CCOCC2)cc1)N1CCOCC1 | 22.7
CCOc1ccc(C(=O)NC(=S)Nc2ccccc2OC)cc1[N+](=O)[O-] | 0.902

SMILES | hERG current change (%, negative = inhibition) at 10uM [%]
Cc1cc(C)c(NC(=O)NC2CCCCC2)c(C)c1 | 7.47
CC(C)c1ccc(C2c3[nH]c4ccccc4c3C[C@H]3C(=O)N(c4ccccc4C(=O)N4CCC[C@@H]4C(=O)O)C(=O)N23)cc1 (stereo partly shown) | 7.36
O=C(c1cc(-c2ccncc2)nc2ccccc12)N1CCN(c2ccccc2O)CC1 | -64.3
Cc1ccc(Oc2nnc(-c3cccs3)c3ccccc23)cc1C | -5.3
Cc1ccc(S(=O)(=O)N2CCN(C(=O)C3CSC4(C)CCC(=O)N34)CC2)cc1C (stereo not shown) | -13.8
COC(=O)CSc1nnc(CNC(=O)c2ccc(S(=O)(=O)N3CCCCC3)cc2)n1C | 9.59
O=C1/C(=C/c2cccc([N+](=O)[O-])c2)Oc2cc(O)ccc21 | 27
Cc1cc(C)n2nc(C(=O)NC3CCCc4ccccc43)nc2n1 (stereo not shown) | 15.1
N#CCc1nnc2n1-c1ccccc1CCC2 | -9.5
COc1c(C)cc(C(=O)C2CCCN(Cc3cnc(N4CCOCC4)s3)C2)cc1C (stereo not shown) | -8.64
COC(=O)C1=C(C)OC(N)=C(C#N)C1c1ccsc1 (stereo not shown) | -0.334
O=C1c2cccc3c(Cl)ccc(c23)C(=O)N1O | 11.1
Cc1cc(C)nc(/N=C(\N)Nc2ccc(S(N)(=O)=O)cc2)n1 | 14.9
O=C(CSc1nc2[nH]ncc2c(=O)[nH]1)Nc1ccc(Cl)c(Cl)c1 | 6.06
Cc1[nH][nH]c(=O)c1C(c1ccc(-c2cccc(Cl)c2)o1)c1c(C)[nH][nH]c1=O | -2.76
COC(=O)c1c(NC(=O)CSc2nnc3ccccn23)sc2c1CCC2 | -45.5
COc1ccccc1C1(CC(=O)O)CCOC(C(C)C)C1 (stereo not shown) | -28.1
COc1ccc(C2N(c3cc(Cl)ccc3OC)C(=O)C3CCCN32)c(OC)c1 (stereo not shown) | -4.23
COc1ccc(OC)c(/C=N/NC(=O)Cc2nc3ccccc3[nH]2)c1 | 5.63
